In PubChem BioAssay AID1347120 (National Center for Advancing Translational Sciences (NCATS), 2019):
About 930 (0.24%) of roughly 390,000 compounds were called active. The inconclusive results got no clear call from the source; some entries with a clear call stand among them for comparison. Calls follow the shape of the dose curve; as a rule, active = well fitted activation curve with a large enough effect; inconclusive = small, poorly fitted or top-dose-only effect; inactive = no such curve, though single readings can be large or run the other way. Potencies beside an inconclusive call are fits to weak or partial responses and may not hold up.

test: qHTS for Suppressors of FUS Proteinopathy: Primary screen using FUS-linked yeast assay; also: nearly all actives have a fitted effect of over 55% in size;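 as to growth rescue (activation): plate controls were DMSO vehicle for no effect and reference control for full effect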; conditions: S. cerevisiae FUS-expressing, OD600, 24 h; Potency: growth rescue; growth rescue (activation): at 76.6 µM (top of the series)
Summary of the method: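 Quantitative HTS measuring growth restoration of FUS-toxic yeast. Galactose-induced cells (OD 0.005) were exposed 24hr at 30C to compounds at several concentrations, then absorbance at 600 nm was recorded.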
Potency is read from the fitted curve at half-maximal effect; tags tell the direction and shape of the fitted curve.

Q: For `COc1ccc(N2CCN(C(=O)CN(c3cccc(Br)c3)S(C)(=O)=O)CC2)cc1`, which “growth rescue (activation)” value is on record?
A: inactive: 7.15%

Q: With `COc1ccc(N2CCN(C(=O)c3cc4c(=O)n(Cc5ccccc5)ccc4nc3C)CC2)cc1` as the molecule, how does the Potency read?
A: inconclusive: 14.1 µM [activator, partial curve, poor fit]

Q: For `Cc1cccc(CN2C(=O)N/C(=C/c3cc(C)n(-c4ccccn4)c3C)C2=O)c1`, which Potency is on record?
A: inconclusive: 28.2 µM [activator, partial curve, poor fit]

Q: Which “growth rescue (activation)” value does the source give for `Cc1ccc(OCCNC(=O)c2cccc(S(=O)(=O)N3CCN(C)CC3)c2)cc1` here?
A: inactive: -16%

Q: Which Potency does the source give for `CC(=O)Nc1ccc(NC(=O)C(C)OC(=O)CNS(=O)(=O)c2ccc(Br)cc2Cl)cc1` (stereo unspecified) here?
A: inconclusive: 35.5 µM [activator, single point]

Q: For `CC(C)OC(=O)c1cc2c(ccn2C)n1CC(=O)N1CCC(Cc2ccccc2)CC1`, which Potency is on record?
A: inconclusive: 31.6 µM [activator, partial curve, poor fit]

Q: With `C[C@@H](CSc1ccc(Br)cc1)CN1CC[C@H](NC(=O)OCc2ccccc2)CCC1=O` as the molecule, how does the Potency read?
A: inconclusive: 20 µM [activator, partial curve, poor fit]

Q: With `CN(C)S(=O)(=O)c1cccc(NC(=O)COc2ccc3ccccc3c2)c1` as the molecule, how does the Potency read?
A: active: 22.4 µM

Q: With `COc1ccc(-c2csc(NC(C)c3nc4cc(Cl)c(N5CCCCC5)cc4n3CCOCCO)n2)cc1` (stereo unspecified) as the molecule, how does the Potency read?
A: inconclusive: 35.5 µM [activator, single point]

Q: Which Potency does the source give for `CCC(C(=O)N1CCN(c2cc(Cl)ccc2C)CC1)n1nc(C)n2c(cc3occc32)c1=O` (stereo unspecified) here?
A: inconclusive: 39.8 µM [activator, partial curve]

Q: For `Cc1c(Cl)cccc1-n1c(CCC(=O)O)ccc1-c1cccs1`, which Potency is on record?
A: inconclusive: 28.2 µM [activator, single point]

Q: Which “growth rescue (activation)” value does the source give for `Cc1c(C(N)=O)nnn1-c1ccc(Br)cc1` here?
A: inactive: -19.5%

Q: For `COc1ccc(NC(c2ccc(F)cc2)c2nnc(-c3ccccc3Cl)o2)cc1Cl` (stereo unspecified), which Potency is on record?
A: inconclusive: 35.5 µM [activator, single point]

Q: For `CCN(C[C@H]1N[C@@](Cc2ccccc2)(C(=O)OC)[C@H]2C(=O)N(Cc3ccccc3)C(=O)[C@@H]12)S(=O)(=O)c1ccc(F)cc1`, which Potency is on record?
A: inconclusive: 14.1 µM [activator, partial curve, poor fit]

Q: With `Cc1sc2nc(CN(Cc3cccs3)C(=O)NC3CCCCC3)[nH]c(=O)c2c1C` as the molecule, how does the Potency read?
A: inconclusive: 20 µM [activator, partial curve, poor fit]

Q: For `Cc1ccc(C)n1-c1sccc1C(=O)O`, which Potency is on record?
A: active: 12.6 µM

Q: For `COc1ccc(/C=C/S(=O)(=O)NCc2ccccc2)c(CNC(=O)OC(C)(C)C)c1`, which “growth rescue (activation)” value is on record?
A: inactive: 38.2%

Q: Which Potency does the source give for `COc1ccc(-n2[nH]c(C)cc2=O)cc1` here?
A: inconclusive: 39.8 µM [activator, partial curve, poor fit]

Q: Which Potency does the source give for `CCN(CC)C(=O)C1=C(C)N(Cc2ccc(C(C)(C)C)cc2)C(=O)C(CC(=O)NCC2CCCCC2)C1` (stereo unspecified) here?
A: inconclusive: 44.7 µM [activator, single point]

Q: Which Potency does the source give for `COc1ccc(NC(=O)CN(C)C(=O)c2cn(-c3ccccc3)nc2-c2ccc(OC)cc2)cc1` here?
A: inconclusive: 25.1 µM [activator, single point]

Q: Which Potency does the source give for `O=C1N/C(=C/c2ccc(N3CCOCC3)o2)C(=O)N1c1cccc(Cl)c1` here?
A: inconclusive: 50.1 µM [activator, single point]

Q: Which Potency does the source give for `COc1ccc(/C=C/C(=O)N(C)CC(=O)Nc2cccc(F)c2)cc1S(=O)(=O)N1CCCCC1` here?
A: inconclusive: 35.5 µM [activator, single point]

Q: Which Potency does the source give for `CCNC(=O)NC(=O)C(C)OC(=O)CCCSc1nc2ccccc2s1` (stereo unspecified) here?
A: inconclusive: 14.1 µM [activator, partial curve, poor fit]

Q: Which Potency does the source give for `CC(=O)c1cccc(NC(=O)c2nc(-c3ccc(C)cc3)n3c2CCCCC3)c1` here?
A: inconclusive: 39.8 µM [activator, partial curve, poor fit]

Q: For `COc1ccc(C2(CNC(=O)C(=O)Nc3cccc(C(F)(F)F)c3)CCCC2)cc1OC`, which “growth rescue (activation)” value is on record?
A: inactive: 34.3%

Q: Which Potency does the source give for `COC(=O)[C@]12C[C@H](CC(=O)N3CCOCC3)C(=O)N(Cc3ccc(Cl)cc3Cl)C1=C[C@H](C1CCCC1)O[C@@H]2C` here?
A: inconclusive: 35.5 µM [activator, single point]

Q: With `Cc1ccc(C2c3[nH]c4ccccc4c3CCN2C(=O)Nc2ccc(C)c(C)c2)cc1` (stereo unspecified) as the molecule, how does the Potency read?
A: inconclusive: 14.1 µM [activator, single point]

Q: For `Cc1ccnc2nc(C(=O)OCCOc3ccccc3)nn12`, which “growth rescue (activation)” value is on record?
A: inactive: 15.8%

Q: With `Cc1n[nH]c(C)c1NC(=O)CN1CCN(S(=O)(=O)c2ccc(C(F)(F)F)cc2)CC1` as the molecule, how does the “growth rescue (activation)” value read?
A: inactive: -9.69%

Q: With `Cc1ccc2nc(-c3ccc(Cl)cc3)cc(C(=O)OCC(=O)c3ccccc3)c2c1` as the molecule, how does the “growth rescue (activation)” value read?
A: inactive: -2.42%

Q: With `Cc1ccc(-c2csc(N3CCN(c4ccc5nc(-c6ccncc6)n(CCN6CCCCC6)c5c4)CC3)n2)cc1` as the molecule, how does the Potency read?
A: inconclusive: 50.1 µM [activator, single point]

Q: With `O=C(c1ccco1)N1CCN(C(=O)C2CC(=O)N(c3ccc(Cl)cc3)C2)CC1` (stereo unspecified) as the molecule, how does the Potency read?
A: inconclusive: 1 µM [activator, partial curve, poor fit]

Q: For `COc1ccc(-c2cc(NC=O)c3ncc(-c4cccc(C(F)(F)F)c4)n3c2)cc1OC`, which Potency is on record?
A: inconclusive: 39.8 µM [activator, single point]

Q: Which Potency does the source give for `NC(=O)c1sc2nc(-c3ccccc3)c3c(c2c1N)CCCC3` here?
A: inconclusive: 50.1 µM [activator, single point]

Q: For `C=CC[C@@H](CC(=O)NCCO)C(=O)N[C@@H](COC(=O)[C@@H](CC=C)Cc1ccc(F)cc1)Cc1c[nH]c2ccccc12`, which Potency is on record?
A: inconclusive: 22.4 µM [activator, partial curve]

Q: With `COc1cc2nc(CN3CCN(S(=O)(=O)c4ccccc4[N+](=O)[O-])CC3)[nH]c(=O)c2cc1OC` as the molecule, how does the Potency read?
A: inconclusive: 20 µM [activator, partial curve]

Q: For `O=C(OCCc1cc2ccccc2c(=O)o1)c1cccc(Br)c1`, which Potency is on record?
A: inconclusive: 25.1 µM [activator, single point]

Q: Which “growth rescue (activation)” value does the source give for `CC(=O)c1cccc(Nc2ccc3cc(S(=O)(=O)N4CCC(C)CC4)ccc3n2)c1` here?
A: inactive: -8.08%

Q: With `COC(=O)[C@]12C=CCN1[C@@H](c1ccc(OC)c(OC)c1)c1c(c3ccccc3n1S(=O)(=O)c1ccc(C)cc1)C2` as the molecule, how does the Potency read?
A: inconclusive: 2.51 µM [activator, full curve, poor fit]

Q: Which growth rescue (activation) does the source give for `CCCCCCn1c(N2CCN(c3ccccc3)CC2)nc2c1c(=O)[nH]c(=O)n2C` here?
A: inconclusive: 82.6% [activator]

Q: For `CC(C)CN1C(=O)/C(=C/c2cccs2)NC1=S`, which “growth rescue (activation)” value is on record?
A: inactive: 18.5%

Q: With `CCCCCCCCOC(=O)c1c(CSC(=N)N)n(C)c2cc(Br)c(OC(C)=O)cc12` as the molecule, how does the Potency read?
A: inconclusive: 50.1 µM [activator, single point]

Q: Which Potency does the source give for `CN(CC(=O)Nc1cccc(F)c1)C(=O)c1cc(S(=O)(=O)N2CCN(c3ccccc3)CC2)ccc1Cl` here?
A: inconclusive: 31.6 µM [activator, single point]

Q: Which Potency does the source give for `COc1ccc(C2/C=C\CN(C(=O)C3CCCC3)[C@H](Cc3ccccc3)C(=O)N2Cc2ccc(F)cc2)cc1` (stereo partly specified) here?
A: inconclusive: 14.1 µM [activator, partial curve]

Q: For `Cc1cc(NCC2CCCO2)n2c(nc3ccccc32)c1C#N` (stereo unspecified), which “growth rescue (activation)” value is on record?
A: inactive: 14.9%

Q: With `CCn1c(COc2ccc(Cl)cc2)nnc1SC1CCc2ccccc2C1=O` (stereo unspecified) as the molecule, how does the “growth rescue (activation)” value read?
A: inactive: -7.98%

Q: Which growth rescue (activation) does the source give for `O=C(c1ccco1)N1CCN(c2ncnc3c2[nH]c2ccc(Br)cc23)CC1` here?
A: inconclusive: 99% [activator]

Q: For `CC1CCN(c2ncnc3c2cnn3-c2ccccc2)CC1`, which “growth rescue (activation)” value is on record?
A: inactive: 10.9%

Q: For `O=S(=O)(c1ccc(N2CCC(c3ccc(Cl)cc3)=N2)cc1)N(CCO)CCO`, which Potency is on record?
A: inconclusive: 31.6 µM [activator, single point]

Q: For `O=S(=O)(c1ccc2[nH]c3c(c2c1)CCCC3)N1CCCCC1`, which “growth rescue (activation)” value is on record?
A: inactive: 40.5%

Q: With `CCCCC[C@H]1CN(Cc2ccc(OC)cc2)C(=O)[C@@H]1CC(=O)NCc1ccccc1` as the molecule, how does the Potency read?
A: inconclusive: 35.5 µM [activator, single point]

Q: With `COc1ccc(C(=O)N(CCc2ccccc2)Cc2cccs2)c(OC)c1` as the molecule, how does the Potency read?
A: inconclusive: 17.8 µM [activator, partial curve]

Q: With `O=C(CN1CCN(C(=O)c2ccc(-c3nc4ccccc4s3)o2)CC1)Nc1ccccc1Cl` as the molecule, how does the “growth rescue (activation)” value read?
A: inactive: -2.89%

Q: With `O=C(CN1C(=O)/C(=C/c2ccc(Cl)cc2)SC1=S)NC1C=CS(=O)(=O)C1` (stereo unspecified) as the molecule, how does the Potency read?
A: inconclusive: 11.2 µM [activator, single point]

Q: Which “growth rescue (activation)” value does the source give for `COc1cccc(C(=O)Nc2cccc(OCc3cc(=O)n4cc(C)ccc4n3)c2)c1` here?
A: inactive: -19%

Q: For `CCCc1cc(-c2[nH]ncc2-c2ccc3c(c2)OCCCO3)c(O)cc1O`, which Potency is on record?
A: inconclusive: 39.8 µM [activator, partial curve, poor fit]

Q: Which Potency does the source give for `COc1ccc(NC(=O)CN2C(=O)COc3ccc(S(=O)(=O)Nc4ccccc4)cc32)cc1` here?
A: inconclusive: 50.1 µM [activator, single point]

Q: Which Potency does the source give for `Nc1ccc(N2CCCCC2)c(S(=O)(=O)Nc2ccccc2Cl)c1` here?
A: inconclusive: 2.24 µM [activator, full curve, poor fit]

Q: For `Cc1ccc(-n2c(Cc3cccs3)nnc2SCc2ccc(C#N)cc2)cc1`, which Potency is on record?
A: inconclusive: 28.2 µM [activator, single point]

Q: With `Cn1c2ccccc2c2c(C(=O)N3CCN(c4ccc(F)cc4)CC3)cn(C3CCCC3)c(=O)c21` as the molecule, how does the Potency read?
A: inconclusive: 31.6 µM [activator, partial curve, poor fit]

Q: For `CCCCn1c(N)c(N(CC(C)C)C(=O)c2oc3ccc(OCC)cc3c2C)c(=O)[nH]c1=O`, which Potency is on record?
A: inconclusive: 39.8 µM [activator, single point]
